Experimental data reported in the supplement of paper PMC11417369.
The list shows a part of the results.

The sequences below were run on PfSIP2 AP2 domain 1 (GST-tagged) (assay: gcPBM binding intensity (ln(normalized median fluorescence intensity)); higher = stronger DNA binding).
Procedure, shortened: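 Using an Agilent 4 × 180k array, primer-extended double-stranded 36-bp intergenic genomic probes and negative controls were exposed for 1 h to GST-fused P. falciparum DNA-binding domains expressed in E. coli. Binding was carried out in 1× PBS with 1% milk, 0.2 mg/ml BSA, 0.5% salmon testes DNA and 0.03% Triton X-100, and protein was detected with Alexa488 anti-GST antibody and a 488 nm scan. Binding intensity is the highest Masliner-normalised natural-log median intensity across replicate spots of either probe orientation.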

Sequence	gcPBM binding intensity (ln)
AGAAAAAACAAAAGAGAAATGAAAAAAAAAAAAAAA [XGTACX_negctrl_site482]	6.91
TAAAATAATATTTATGTGCACATATAATTATTAATT	8.71
TTTGTGCTTATCCTAACACACACAACATATAAGAAA [CACACA_site9091]	7.22
ATATATATTTTTATAACACACAATGATGTACATTAC [CACACA_site1076]	7.2
TGTGTAGCTAGGGGGTTGCTAATTTTTGTTTTGACC [CACACA_negctrl_site634]	7.38
TTATATATACCATAATGTACTCTATTATATAAAAAA [XGTACX_site7464]	7.18
GATTCCTTTAACCCTGCACACATACATACATTTATA [CACACA_site9308]	7.83
TATATTTCTTATTACATACACACATATACATATATG [CACACA_site3202]	7.13
TAATAATATAATAATACACACTCATTATATATATAA [CACACA_site6045]	6.89
ATAGATGCATATTATACACACATATGTAAATACATT [CACACA_site4691]	7.06
CCACTATATAAAATCACACATTTATATTATACATAT [CACACA_site4570]	7.09
TTTATTTTAATTTATTGTACATTGTTATCAAGTGCA [XGTACX_site1110]	7.15
TATTGGTAATGTAAATGTACATATAGATATTTACAT [XGTACX_site1922]	6.76
ATAATAGTTAAATGTACACACTAACTACATGGAATA [CACACA_site5753]	7.1
AAAAAAAGAAATTAGGTGCATAGCATTAACCGATAA [GTGCAC_site9582]	10.1
TTGAAGTTAATAAAAACTTTATACATGAAATTATTT [CACACA_negctrl_site684]	6.66
ACAAAAAAAAAAAAAATACACACACATAAAAAAAAA [TGCATGCA_negctrl_site333]	6.96
ACAAAATATTTTTCTTCACACATCCATTCAACATTT [CACACA_site5886]	7.24
TATATATATATATATATTAATAATTAATATAAAAGA [XGTACX_negctrl_site32]	9.16
AATCAAAACATTAAAAAGAAAAAATATATATATATA [CACACA_negctrl_site366]	9.72
CCATTCAAATTTCGCACACACATACAAAAAAAAAAA [CACACA_site3093]	7.63
TATAAATGATTAATTTGTACATATTTTACTTAATTG [XGTACX_site5271]	6.73

Sequence	gcPBM binding intensity (ln)
TAAATAAATAAATATATATATATATATATATATATA [XGTACX_negctrl_site70]	9.63
TTGATGATATCATTTTGTACTTATACGTATTTAAAA [XGTACX_site148]	6.97
CACATAAAAAAATAAACACACATATGTATATAAATA [CACACA_site7483]	6.95
CTTTAAATGATGTAAACACACACATATACATTATTA [CACACA_site9035]	7.15
AATGGAAAAATAGGCACACACACATAAATACAGATA [CACACA_site4844]	7.1
TAAAAAAAAATAAAAAGTACATATATATATATATAT [XGTACX_site1155]	9.34
AATATGAAACAAGACGCACACATAAATAAATAAATA [CACACA_site326]	7.15
AGTGCTACTCATGATTGAATAGAGGAAAAGGCGGTG [GTGCAC_negctrl_site49]	7.24
TTGAAAAATCAGCACACACACAAATACATACATATT [CACACA_site7505]	7.03
ACATATGGCACATATGTACACACGTATAGATAATAT [CACACA_site2024]	7.19
CTAAAAAAATAATAAAGTACACAAACGAATATATAA [XGTACX_site668]	7.48
CTTTTTTGGTACATCACACATTTTTACATTCCCTTT [CACACA_site4957]	7.3
TTTTTTTTTTTTTTTGCACACTATATTTAATATAAG [CACACA_site2444]	7.73
CCATATTTAATAAAATGTACTCATTCTTTTATTTTA [XGTACX_site7802]	7.11
TTAATAGTGGAAATATGTACATAATTTTGGTCTTTT [XGTACX_site1664]	6.86
CTGTTCAAAATATGAACACACACATATATATATATA [CACACA_site8638]	9.04
TAATTACACTTTAAAAGTACATATATAATAACATTA [XGTACX_site379]	7.04
CAAACAATTAAACAAACACACATATACATGTATATA [CACACA_site2060]	6.87
AAAATAAGCCATATACGTACATACATATATAAATAT [XGTACX_site4197]	7.46
TTTTTTATGTTCAATTGTACATATACATATATATAT [XGTACX_site6013]	8.54
TTCATATTTCATATATGTACTTATGTTCAATATAGT [XGTACX_site3811]	7.13
GATTTAATAGATACGAGTACAGAAATTGTATACATA [XGTACX_site7563]	7.21

Sequence	gcPBM binding intensity (ln)
TACATATTTTTCTTTTCACACATGGAAAAAAAAGGT [CACACA_site5146]	7.07
TATTAATTCATTTTTTTTTTTTTTTTTTTTTTTTTT [CACACA_negctrl_site1215]	8.55
ATATATATATATATATATATATATATATATAAGTGG [XGTACX_negctrl_site90]	9.1
CCCTTAATTTAAAACACACAAACAAATAAGTTAGTT [CACACA_site3793]	6.97
TATTTTTTTTTTCACTGTACATACAACAACAAATAT [XGTACX_site8835]	7.27
AATATATTTATTATAACACACACATATATATATTAT [CACACA_site8264]	7.1
TTATATGTTTTGTGTACACAATTTATTAAATTAATA [CACACA_site5645]	7.53
ATAGGAAAAAGTATTGGTACACATACATATACGTTA [XGTACX_site5819]	6.92
TATATATTTTTTTCATGTACATATAAATTAATTAAA [XGTACX_site8680]	7.3
ACACAAAAAATTAAGTGTACTCATCAAGAAAAAAAA [XGTACX_site3456]	7.38
ATAAAATACCCTGATCTATTACATATTATATTCTGC [GTGCAC_negctrl_site311]	6.71
TATATTATATATATATGTACATATTATTATATCTAA [XGTACX_site3835]	7.31
TTTTGTATTTTTCACACACACATAAGTAAACAATAA [CACACA_site1899]	7.54
TAAATGAAAATATGTACACACTTGAAAATTTTTATG [CACACA_site5599]	7.11
AATCTTTTTAAATCTTGATTAATTTCGGGTATATAT [TGCATGCA_negctrl_site107]	6.82
TACAAGAACAAAAAATGTACGAAATAATTACAAATA [XGTACX_site5824]	6.73
AAATTAAATATTATATTAATTCTTAAATTTTTTTTT [CACACA_negctrl_site439]	6.55
ATACAATAATATAAATGTACAAATTATATCTTCATT [XGTACX_site8994]	6.85
AAACATATGGTATTTAAACACACAAAAAAGAAAGAA [CACACA_site8239]	7.2
ATGTTGTGGATATATACACACATACATATTTATATA [CACACA_site6857]	7.05
AAAAAAAAAAAAAAAACACACAAACATCAAATTACT [CACACA_site6950]	7.55
AATTTCAATTTCTGTTGTACACTTTTTAATAGTAAA [XGTACX_site4085]	7.08

Sequence	gcPBM binding intensity (ln)
AAATTTAAAAATAAAGAACACACATATGTAAAATAT [CACACA_site9252]	7.13
AAGTGTTCTTGTTATACACACACATATATATATATA [CACACA_site8251]	9.61
TAGCATGATTTGCCTTGTACACAACCGTTTTAATAA [XGTACX_site7911]	6.76
TATGATAAATATGGAGCACACACACCGAAACATACA [CACACA_site8031]	7.32
TATTTATAAATATACGCACACATTAATATATATATA [CACACA_site3969]	8.6
AGTATGTAAATGTGCCATATATATATTAAATACATA [CACACA_negctrl_site14]	6.93
GTTGGTAGGCGGTACGGTACACGTAGTATTTTTCTT [XGTACX_site4213]	6.66
ATATTATTTATTTTTAAATTATATTGATTATTTTTT [CACACA_negctrl_site451]	6.65
TTGAAGTGTACTATTTTATATATATATATACATTTT [CACACA_negctrl_site224]	7.25
TAGAAATATATTTATTGTACATTGTATATATTATAT [XGTACX_site7584]	7.04
TTTTAATTTTTAAGACGTACTATCATTTGATAATAA [XGTACX_site3942]	6.86
TACGATGTTTTAAAATGTACATAAAAGTCACATAAG [XGTACX_site3297]	7.01
TAATGTTCCTATATAGTGCAATTATGTTTTATTTCT	8.06
TCTTTTTTTTTTACTAGTACTTAAAAAAAAAATATG [XGTACX_site4395]	7.07
ATTATGTGCCAATACACACACACATCTATATTTATA [CACACA_site6359]	7.15
TTATTATATAAATAAAAAAAAAAAAAAAAAAAAAAA [CACACA_negctrl_site1455]	7
TATATACGCATGCGCACACACAAGTGGGAAATTTGG [CACACA_site1785]	7.17
ACTGTGGGAATAACCACACACACACCCACATATATA [CACACA_site3542]	6.9
ATATTTATATGAATCACACACAAAAAATATAGAGAT [CACACA_site7775]	7.02
AAATCACAAAAAAAAAAAAAAATATATATATATATA [CACACA_negctrl_site10]	9.28
CATAAATACAAATATACACACATATATATATATATA [CACACA_site2633]	9.66
AATATGTTTTTTAGATGTACAGATTAAATATTAAAA [XGTACX_site7308]	7.17
